Reference: PubChem BioAssay AID488969 (Vanderbilt High Throughput Screening Facility, 2010)
Whole data set: some 110,000 compounds, median “z-score” near -0.1, cut for the highest 2% near 2. Some of the results follow.

Target: Metabotropic glutamate receptor 8 (Rattus norvegicus) (UniProt P70579)
Assay: mGluR8 Gi/Go-coupled signaling modulation – cell-based, rat, thallium flux, HTS, primary screen (AID 488969)
Conditions: HEK293 rat mGluR8, GIRK (G protein-gated inwardly rectifying potassium channel) thallium flux, FluoZin2; at 10 µM; stronger effect = higher value; submaximal glutamate (EC20) added with thallium

UniProt P70579, sequence (P70579 whole entry, looked up): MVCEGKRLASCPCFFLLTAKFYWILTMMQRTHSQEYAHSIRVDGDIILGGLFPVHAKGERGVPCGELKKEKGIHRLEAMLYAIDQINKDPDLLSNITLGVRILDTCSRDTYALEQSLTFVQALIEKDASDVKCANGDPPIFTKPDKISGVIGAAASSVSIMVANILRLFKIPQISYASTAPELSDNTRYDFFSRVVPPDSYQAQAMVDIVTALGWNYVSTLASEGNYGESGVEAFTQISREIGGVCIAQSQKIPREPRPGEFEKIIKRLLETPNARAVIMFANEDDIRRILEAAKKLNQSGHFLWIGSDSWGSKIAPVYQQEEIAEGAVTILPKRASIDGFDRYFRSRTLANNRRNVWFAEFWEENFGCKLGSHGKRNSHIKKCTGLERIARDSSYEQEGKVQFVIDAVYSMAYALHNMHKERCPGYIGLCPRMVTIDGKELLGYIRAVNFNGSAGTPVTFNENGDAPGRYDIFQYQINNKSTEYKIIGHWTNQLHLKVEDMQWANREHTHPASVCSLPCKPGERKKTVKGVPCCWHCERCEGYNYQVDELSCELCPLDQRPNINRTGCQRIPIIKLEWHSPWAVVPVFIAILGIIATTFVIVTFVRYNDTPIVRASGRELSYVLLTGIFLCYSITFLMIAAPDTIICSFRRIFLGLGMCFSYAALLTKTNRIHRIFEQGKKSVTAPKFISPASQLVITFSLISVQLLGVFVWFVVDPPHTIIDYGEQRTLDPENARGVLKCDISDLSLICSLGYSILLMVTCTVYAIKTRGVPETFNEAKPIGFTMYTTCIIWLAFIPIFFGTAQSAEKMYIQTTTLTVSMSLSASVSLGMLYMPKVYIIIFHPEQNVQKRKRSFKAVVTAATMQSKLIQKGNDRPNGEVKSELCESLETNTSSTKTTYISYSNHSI

| Compound | z-score |
| --- | --- |
| O=C(NCCCN1CCCC1=O)Nc1ccc(F)c(Cl)c1 | -0.0666 |
| Cc1cccc(NC(=O)CCN2CCOCC2)c1 | -0.113 |
| O=C(O)c1cc(C2CC2)nn1-c1ccccc1 | -0.0368 |
| CCN(CC)CCC(=O)NC(C)(C)Cc1ccc(O)cc1 | -1.17 |
| COc1ccccc1NC(=S)NC1CCC(CC2CCC(NC(=S)Nc3ccccc3OC)CC2)CC1 (stereo not given) | -0.0995 |
| CSc1ccccc1C(=O)NCc1ccc2c(c1)OCO2 | -0.296 |
| O=C(Nc1cc2c(oc1=O)CCCC2=O)c1ccc(Cl)cc1 | -0.285 |
| Cc1cc(C)nc(NC(=O)C(C)N2C(=O)c3ccccc3C2=O)n1 (stereo not given) | -0.586 |
| CCN1C/C(=C\c2cccc([N+](=O)[O-])c2)C(=O)/C(=C/c2cccc([N+](=O)[O-])c2)C1 | -0.328 |
| Cc1cc(NCCN2CCOCC2)n2c(nc3ccccc32)c1C#N | -0.377 |
| C=CCn1c(C)cc(C(=O)CSc2nc3ccccc3o2)c1C | 0.852 |
| CN(c1ccccc1)S(=O)(=O)c1ccc(C(=O)OCC(=O)NCc2ccco2)cc1 | -0.166 |
| C/C(=N\NC(=O)C1COc2ccccc2O1)c1ccccn1 (stereo not given) | -0.0325 |
| CNC(=O)COC(=O)c1ccc(NC(=O)CC#N)cc1 | 0.11 |
| NC(=O)c1nn(-c2ccccc2)nc1NC(=O)Cn1nnc(-c2ccccc2)n1 | 0.0782 |
| COc1cc(SC#N)ccc1N=Cc1c(C)[nH]n(-c2cccc3ccccc23)c1=O | -0.32 |
| Cc1cc(C)nc(SCC(=O)N/N=C/c2cccc([N+](=O)[O-])c2)n1 | -0.235 |
| CCOc1ccccc1N(CC(=O)O)S(=O)(=O)c1ccc(C)cc1 | -0.137 |
| Cc1cccc(NC(=O)CC2NC3CCCCC3NC2=O)c1 (stereo not given) | -0.174 |
| O=C(NC1CCCC1)C(c1ccccc1)N(Cc1ccco1)C(=O)Cc1cccs1 (stereo not given) | -1.45 |
| COC(=O)c1c(C)noc1-c1cc(C)on1 | -0.229 |
| CCOP(=O)(OCC)C(NC(=O)C(F)(F)F)c1ccccc1 (stereo not given) | -0.0338 |
| Cc1ccc(-c2ccc(=O)n(CCC(=O)NCCN3CCCCC3C)n2)cc1 (stereo not given) | -0.33 |
| C=CCn1c(SCC(=O)c2ccc(CNC(C)=O)o2)nc2scc(C3CC3)c2c1=O | -0.393 |

| Compound | z-score |
| --- | --- |
| O=C(Nc1nnc(-c2ccncc2)s1)C1CCCO1 (stereo not given) | 0.264 |
| Oc1ccccc1NCC(O)Cn1ccc2ccccc21 (stereo not given) | -0.42 |
| CN(C)c1nc(N)nc(Nc2ccccc2C#N)n1 | -0.0953 |
| O=[N+]([O-])c1ccc(NCCNc2ccc(Cl)nn2)cc1 | -0.0551 |
| CC(C)C(NC(=O)C1CCCCC1)C(=O)Nc1ccccn1 (stereo not given) | -0.198 |
| COc1ccc(C(=O)Nc2sc(C)c(C)c2CN2CC(C)OC(C)C2)cc1 (stereo not given) | 1.5 |
| CCOC(=O)COc1ccc(S(=O)(=O)Nc2ccc3c(c2)OCCO3)cc1 | 0.286 |
| Cc1cc(C)n(C(=O)CCC(=O)Nc2ccc(C)c(C)c2)n1 | -0.0686 |
| CCCC(=O)Nc1cc(OC)c(OC)cc1C(=O)O | -0.294 |
| Cn1nnc2sc3c(c2c1=O)CCCC3 | -0.875 |
| Cc1nn(C(C)(C)C)c(OC(=O)c2cccs2)c1S(=O)(=O)c1ccccc1 | -0.214 |
| CN(C(=O)c1coc(=O)c2ccccc12)c1ccc(F)cc1 | -0.51 |
| CCOC(=O)c1ccccc1NC(=O)c1ccc(NS(C)(=O)=O)cc1 | -0.284 |
| OCCNc1nc2ccccc2n1-c1ccccc1 | -0.0406 |
| Cc1nnsc1C(=O)Nc1cc(Cl)ccc1Cl | -0.131 |
| COc1ccc2nc(/N=C(\N)NC(=O)C(C)(C)C)nc(C)c2c1 | -0.613 |
| CCOCCCNc1nc2c(c(=O)[nH]c(=O)n2C)n1CCCc1ccccc1 | -0.17 |
| O=S(=O)(c1ccccc1Cl)N1CCCC(c2nc(-c3cccnc3)no2)C1 (stereo not given) | 2.62 |
| O=C(c1nn(Cc2ccccc2)c(=O)c2ccccc12)N1CCc2ccccc2C1 | -0.399 |
| Cn1c(Cn2c(C(F)(F)F)nc3ccccc32)nc2ccccc21 | -0.47 |
| CN(C)C(/C=C/Nc1ccc(C#N)cc1)=C(C#N)C#N | -0.302 |
| COc1cccc(/C(O)=C2/C(=O)C(=O)N(Cc3ccco3)C2c2ccncc2)c1 (stereo not given) | -0.192 |
| CC(C)NS(=O)(=O)c1ccc(OCC(=O)NCc2ccc3c(c2)OCO3)c(Cl)c1 | -0.238 |
| COc1cc(S(=O)(=O)N2CCN(C)CC2)c(OC)cc1Cl | -0.0772 |

| Compound | z-score |
| --- | --- |
| Cc1ccc(NC(=O)COc2ccc(/C=N/NC(=O)CSCc3ccccc3)cc2)cc1 | -0.271 |
| COc1nc(N)nc(NC23CC4CC(CC(C4)C2)C3)n1 | 0.314 |
| O=C(NC1CCCCC1)C(c1ccccc1)N(C(=O)c1cccs1)c1ccc2c(c1)OCO2 (stereo not given) | 0.0371 |
| CC(C)COC(=O)/C(C#N)=C/c1c[nH]c2ccccc12 | -1.39 |
| COc1cccc(N2CC(C(=O)Nc3c(C)cccc3C)CC2=O)c1 (stereo not given) | 0.534 |
| O=C(NCC(c1cccs1)N1CCOCC1)c1cccc([N+](=O)[O-])c1 (stereo not given) | -0.213 |
| COc1ccc(-c2csc3nc(C)n(-n4cccc4)c(=O)c23)cc1OC | 0.0148 |
| Cc1ccc2c(c1)c1nnc(SCC(=O)N3CCN(c4ccc(F)cc4)CC3)nc1n2CC(=O)O | 0.0915 |
| COC(=O)c1ccc(C2C(C(=O)c3cc4ccccc4o3)=C(O)C(=O)N2CCCN(C)C)cc1 (stereo not given) | -1.1 |
| CN(c1ccc(F)cc1)S(=O)(=O)c1ccc(Cl)c(C(=O)Nc2ccc3c(c2)CCC3)c1 | -0.177 |
| O=C(O)c1ccc(N2CCCCCC2)c(N2C(=O)c3ccccc3C2=O)c1 | -0.96 |
| CC(C)(C)CNC(CO)C12CC3CC(CC(C3)C1)C2 (stereo not given) | 0.704 |
| Cc1cccc(N2CCN(C(=O)COc3cc(=O)n(C)c4ccccc34)CC2)c1C | 0.279 |
| CCC(C)NCc1ccc(C(=O)OC)o1 (stereo not given) | 0.164 |
| COc1ccc(-c2nc3cc(NC(=O)Cc4ccc(OC)c(OC)c4)ccc3o2)cc1 | 1.14 |
| Cc1cccc(C(=O)N2CCN(c3ccc([N+](=O)[O-])c(N4CCOCC4)c3)CC2)c1 | -0.208 |
| CC(=O)Nc1ccc(OC(=O)c2cccs2)cc1 | -0.00659 |
| O=C1CCCN1CCCNS(=O)(=O)c1ccc(Cl)c(C(=O)N2CCOCC2)c1 | 0.0385 |
| O=C(COc1ccc(/C=N/NS(=O)(=O)c2ccccc2)cc1)Nc1ccc(F)cc1 | -0.259 |
| CC1CCN(S(=O)(=O)c2ccc(C(=O)Nc3sccc3C(N)=O)cc2)CC1 | 0.515 |
| COc1ccc(-c2cc(=O)oc3cc4occ(C)c4cc23)cc1 | -0.189 |
| Cc1ccc(C)c(NC(=O)C(OC(=O)c2ccc(C)s2)c2ccccc2)c1 (stereo not given) | -0.248 |
